Some of the results follow.
T1: UNK ZnF1-3 (human, UniProt Q9C0B0 31-174)
T1 sequence: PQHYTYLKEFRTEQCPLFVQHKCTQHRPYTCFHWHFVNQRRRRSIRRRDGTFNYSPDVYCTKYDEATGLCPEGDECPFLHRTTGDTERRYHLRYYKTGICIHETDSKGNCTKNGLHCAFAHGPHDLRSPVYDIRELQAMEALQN

B1: chr10:33190432:33190433:-_ENSG00000150093_ENST00000302278|hu_mus|FALSE|FALSE (ssRNA)
RNA: GGGAGUUCUACAGUCCGACGAUCUACAUUUUCCAAACCUGCAUGUGAAUAAAACCCUGGCCACAGAGCCCCAAAACUACCCUACUGUGACUAAGAUGCUGCUGCUGUGAGCUUGGUGUUGCAAAAUCCGCCUGAGUAGGAUUCCAACAGAGGAUUGAGCAUCA
B2: chr7:150775722:150775723:-_ENSG00000164896_ENST00000297532|hu_mus|FALSE|FALSE (ssRNA)
RNA: GGGAGUUCUACAGUCCGACGAUCUUCCUGAACCACCAGGAAAUGAGCAAUGGCUUCCAGAAGUUGGGGUUCCCGCAAGCGGUGCCGGGCCAGGUGUUGGGCCAGAAGCACCAUUACGUGAGGAGUCAGUUCUUCUGGCCUUGCCAACAGAGGAUUGAGCAUCA
B3: chr7:141441981:141441982:+_ENSG00000106028_ENST00000265304|hu_mus|hu_hu_hu_mus_False|58_88 (ssRNA)
RNA: GGGAGUUCUACAGUCCGACGAUCCUCAUGUCUUACAAACUGACGAAGUACCUGUAACACAGGUCUUCGAAACAUGGCUUCUAUUUUUCUUACAACCUAAUCUUUAGGCUUUUCCUAAAGGAAAGAAAGAAAAGAGAAAAAUGACAACAGAGGAUUGAGCAUCA
B4: chr18:35732517:35732518:+_ENSMUSG00000037236_ENSMUST00000166793|mus_mus|motif|central (ssRNA)
RNA: GGGAGUUCUACAGUCCGACGAUCUAUAGAGCACAGAUGGGGAUAACCCUUCGGUAAGAGUCCAUGGAAGUCUUCAAUAUUGCGGCUUGGAGGAGCGCCCCUCUUUUUCUCAAAGAGAGAUCUCUCUUGUAAGGGGCCAGGACCCAACAGAGGAUUGAGCAUCA
B5: chr7:135612270:135612271:-_ENSG00000105887_ENST00000393085|hu_mus|hu_hu_hu_mus_False|38_108 (ssRNA)
RNA: GGGAGUUCUACAGUCCGACGAUCGUUUCUGAGAUGUAUGUUAAAUAGUACUUCAGUGGAAAACAAAACUUAACCUUUUAUUAAUGCGUGUUGUACCAGAAAGCAAAAUUUUAGCUUCAUUUAUUCAAAAAUAUUAACAUUAAGCAACAGAGGAUUGAGCAUCA
B6: 143155553_143155673_4980_3pUTR_ENSMUSG00000030275_ENSMUST00000032413|mouse|control|control (ssRNA)
RNA: GGGAGUUCUACAGUCCGACGAUCUGGACUGAAAUUCCAGAAAUGGGGAUGUUUUGUCUGGAGCAGCUGAUAGCAUUUGUCAAACCCAAGACUGAACACUGCUGUCACUGUGGGGAAAGGCGGCUCACCACCUACUCAGAACAGCAACAGAGGAUUGAGCAUCA
B7: chr7:151048522:151048523:+_ENSG00000013374_ENST00000566856|hu_mus|hu_hu_hu_mus_True|1_38 (ssRNA)
RNA: GGGAGUUCUACAGUCCGACGAUCCUGUUUCUUAUUUAUUACGAUCUUGAUGUAAUUUUCUUGAAAUCCGAAAGUUUCAGCUAUUUGACACCUCAGGUCUCUGCCAGUGACAUGCAAGCGGGUCUCCAACAAGCUUUUCCUAUCCAACAGAGGAUUGAGCAUCA
B8: chrX:103217195:103217196:+_ENSMUSG00000031231_ENSMUST00000033582|mus_hu|FALSE|FALSE (ssRNA)
RNA: GGGAGUUCUACAGUCCGACGAUCCAUAUCUUAAUGGGUACACAGUGCUUUAAUUUGGCAUCAAUUAUGAGCUGUUUUUUAAACAAUUCAUUAUUACACCAGCUGGGAUGAUUACUGAUUCCUCCAUUCCUUUGGGGUAACUCUCAACAGAGGAUUGAGCAUCA
B9: chr14:89338683:89338684:+_ENSG00000165533_ENST00000346301|hu_mus|FALSE|FALSE (ssRNA)
RNA: GGGAGUUCUACAGUCCGACGAUCGUGGUUGUUGUGGACCAGGGCCAGCCUGAAGCAUUGGUGGGCCAAGUUUGUAUCUCCGAUUCCCACAGCUAUGUGCCCCAGGUUGUACCAGACAUCAGCUGCCUCUUCUUCAUUUUCAGCCAACAGAGGAUUGAGCAUCA
B10: chr17:74040031:74040032:-_ENSG00000167881_ENST00000307877|hu_mus|FALSE|FALSE (ssRNA)
RNA: GGGAGUUCUACAGUCCGACGAUCGUACAGGACGAGGGCUUCGCUCCACUUCUUCACCAGCACGUAAGACUGAGCAAUGAAGAAACACCUGUAAGCUUUGAACACCAGGGUCUUGAGGCUUAUCUCUUUCUGGAAGGUUCUGUCCAACAGAGGAUUGAGCAUCA
B11: chr16:94651144:94651145:+_ENSMUSG00000040785_ENSMUST00000117648|mus_hu|motif|central (ssRNA)
RNA: GGGAGUUCUACAGUCCGACGAUCAUUUUCUUGAAUCAAGUGGCGAAUAACAUAGUCCACUGCUUCAUUUAGAAAAUUUCUGCGGGAAAAACAGGUUGUAUAGUCUUCUGUGCUCAAAACUUUCCAAGAAAGCAAUUCUUUGAGCAACAGAGGAUUGAGCAUCA
B12: chr12:39763582:39763583:-_ENSG00000139116_ENST00000544797|hu_mus|hu_hu_hu_mus_False|8_78 (ssRNA)
RNA: GGGAGUUCUACAGUCCGACGAUCCUCUAGGAACUGGGCAUUCACUUUGAAUUCAGGAGCAGGAAGCCCGUUUUUAAUCGCUGAGGUCUUUUUCUCAUCAAUACUCUUGAACAGGUGUCUAACAGCACGAGAAAUAAUGCCCUGCAACAGAGGAUUGAGCAUCA
B13: chr11:29408400:29408401:+_ENSMUSG00000032740_ENSMUST00000040182|mus_mus|FALSE|FALSE (ssRNA)
RNA: GGGAGUUCUACAGUCCGACGAUCGUUAAAAACAUAAUCACUUUAUCUUGUAAAUGCUAUUUGCUGGAAAACCAUCUCACUAAAAAAAGUUUCAGAAAAAUGAUUUUAUCUUGGAUCCAUUUGUGAAUACCUAGUGCAGCUUAUCAACAGAGGAUUGAGCAUCA
B14: chr2:198351390:198351391:-_ENSG00000144381_ENST00000345042|hu_hu|hu_hu_hu_mus_False|1_108 (ssRNA)
RNA: GGGAGUUCUACAGUCCGACGAUCUCAUUCUCACUCUCCACAGAAAGGCUGCUUCUGAACUCUCAUGUGGUGACACAGCGCUACAGUCCUGAUGCUCACAGAACAGUAGAGAUGCCUCAGUGAUUUAAGUUGAAAGCAGCAGUACAACAGAGGAUUGAGCAUCA

These binders were tested against T1, UNK ZnF1-3 (assay: nsRBNS (natural sequence RNA bind-n-seq); RBNS binding buffer (assumed for nsRBNS): 25 mM Tris pH 7.5, 150 mM KCl, 3 mM MgCl2, 0.01% Triton X-100, 500 ug/ml BSA, 20 U/ml SUPERase-In, 4 C; UNK is unkempt and MSI1 is Musashi-1; names of the RNAs are library labels; protein concentration not given here; high values mean tight binding).

Row | Binder | binding signal [enrichment R]
1 | B1 | 1.28
2 | B2 | 1.07
3 | B3 | 0.614
4 | B4 | 0.698
5 | B5 | 1.62
6 | B6 | 1.33
7 | B7 | 0.757
8 | B8 | 0.481
9 | B9 | 0.718
10 | B10 | 1.24
11 | B11 | 0.422
12 | B12 | 1.43
13 | B13 | 1.11
14 | B14 | 1.11

Source: PMC12136788
